Further values from the same series stand in other lists.
How the values were obtained:
Rat [1] = test: concentration in plasma after dosing; details: 0.5 h; dosed: 2-Methyltetrahydrofuran; 10 mg/kg; oral; Male; F344
Rat [2] = test: concentration in brain after dosing; details: 20 min; dosed: 2-Methyltetrahydrofuran; 400 mg/kg; oral; Female; F344
Rat [3] = test: concentration in plasma after dosing; details: 3 h; dosed: 2-Methyltetrahydrofuran; 30 mg/kg; oral; Female; F344
Rat [4] = test: concentration in plasma after dosing; details: 5 min; dosed: 2-Methyltetrahydrofuran; 10 mg/kg; iv; Female; F344
Rat [5] = test: concentration in plasma after dosing; details: 10 min; dosed: 2-Methyltetrahydrofuran; 10 mg/kg; iv; Male; F344
Rat [6] = test: concentration in plasma after dosing; details: 0.5 h; dosed: 2-Methyltetrahydrofuran; 10 mg/kg; iv; Male; F344
Rat [7] = test: concentration in brain after dosing; details: 8 min; dosed: 2-Methyltetrahydrofuran; 30 mg/kg; oral; Male; F344
Rat [8] = test: concentration in brain after dosing; details: 0.5 h; dosed: 2-Methyltetrahydrofuran; 30 mg/kg; oral; Female; F344
Rat [9] = test: concentration in brain after dosing; details: 3 h; dosed: 2-Methyltetrahydrofuran; 30 mg/kg; oral; Male; F344
Rat [10] = test: concentration in plasma after dosing; details: 4 h; dosed: 2-Methyltetrahydrofuran; 100 mg/kg; oral; Female; Harlan Sprague Dawley
Rat [11] = test: concentration in brain after dosing; details: 20 min; dosed: 2-Methyltetrahydrofuran; 10 mg/kg; oral; Female; F344
Rat [12] = test: concentration in plasma after dosing; details: 1 h; dosed: 2-Methyltetrahydrofuran; 10 mg/kg; oral; Male; F344
Rat [13] = test: concentration in brain after dosing; details: 0.75 h; dosed: 2-Methyltetrahydrofuran; 30 mg/kg; oral; Female; F344
Rat [14] = test: concentration in plasma after dosing; details: 8 h; dosed: 2-Methyltetrahydrofuran; 400 mg/kg; oral; Male; F344
Rat [15] = test: concentration in brain after dosing; details: 6 h; dosed: 2-Methyltetrahydrofuran; 100 mg/kg; oral; Female; Harlan Sprague Dawley
Rat [16] = test: concentration in brain after dosing; details: 1.5 h; dosed: 2-Methyltetrahydrofuran; 10 mg/kg; iv; Male; F344
Rat [17] = test: concentration in plasma after dosing; details: 5 min; dosed: Bromochloroacetic acid; 10 mg/kg; iv; Male; F344
Rat [18] = test: concentration in plasma after dosing; details: dosed: Bromochloroacetic acid, 100 mg/kg, oral, Male, F344
Rat [19] = test: concentration in plasma after dosing; details: dosed: Bromochloroacetic acid, 80 mg/kg, iv, Female, Harlan Sprague-Dawley
Rat [20] = test: concentration in plasma after dosing; details: dosed: Fluorotelomer alcohol 8+2, 48 mg/kg, oral, Male, Harlan Sprague Dawley
Rat [21] = test: concentration in plasma after dosing; details: dosed: Fluorotelomer alcohol 8+2, 40 mg/kg, oral, Female, Harlan Sprague Dawley
Rat [22] = test: concentration in plasma after dosing; details: 6 h; dosed: Fluorotelomer alcohol 8+2; 80 mg/kg; oral; Female; Harlan Sprague Dawley
Rat [23] = test: concentration in plasma after dosing; details: dosed: Fluorotelomer alcohol 8+2, 160 mg/kg, oral, Female, Harlan Sprague Dawley
Rat [24] = test: concentration in plasma after dosing; details: 3 h; dosed: Fluorotelomer alcohol 8+2; 40 mg/kg; oral; Female; Harlan Sprague Dawley
Rat [25] = test: concentration in plasma after dosing; details: dosed: Formamide, 30 mg/kg, iv, Female, F344
Rat [26] = test: concentration in plasma after dosing; details: dosed: Formamide, 90 mg/kg, iv, Male, Harlan Sprague Dawley
Rat [27] = test: concentration in plasma after dosing; details: dosed: Formamide, 300 mg/kg, oral, Female, F344
Rat [28] = test: concentration in plasma after dosing; details: dosed: Formamide, 600 mg/kg, oral, Female, F344
Rat [29] = test: concentration in plasma after dosing; details: dosed: Formamide, 300 mg/kg, oral, Female, Harlan Sprague Dawley
Rat [30] = test: concentration in plasma after dosing; details: dosed: Formamide, 90 mg/kg, iv, Male, Harlan Sprague Dawley; remark: listed apart in the source
Rat [31] = test: concentration in plasma after dosing; details: dosed: Formamide, 90 mg/kg, iv, Male, Harlan Sprague Dawley; remark: listed apart in the source
Rat [32] = test: concentration in plasma after dosing; details: dosed: Formamide, 30 mg/kg, iv, Female, F344; remark: listed apart in the source
Rat [33] = test: concentration in plasma after dosing; details: 2 min; dosed: Pyridine; 200 mg/kg; oral; Female; Harlan Sprague Dawley
Rat [34] = test: concentration in plasma after dosing; details: 20 min; dosed: Pyridine; 50 mg/kg; oral; Male; Harlan Sprague Dawley
Rat [35] = test: concentration in plasma after dosing; details: 20 min; dosed: Pyridine; 10 mg/kg; iv; Male; Harlan Sprague Dawley
Rat [36] = test: concentration in plasma after dosing; details: 2 min; dosed: Pyridine; 50 mg/kg; oral; Female; F344

## CC1CCCO1 (centres undefined) [2-Methyltetrahydrofuran]
Rat [1]
  concentration in plasma: 3.43 µg/mL
Rat [2]
  concentration in brain: 150 µg/g
Rat [3]
  concentration in plasma: 0.539 µg/mL
Rat [4]
  concentration in plasma: 12.3 µg/mL
Rat [5]
  concentration in plasma: 9.92 µg/mL
Rat [6]
  concentration in plasma: 4.33 µg/mL
Rat [7]
  concentration in brain: 15.8 µg/g
Rat [8]
  concentration in brain: 11.1 µg/g
Rat [9]
  concentration in brain: 2.08 µg/g
Rat [10]
  concentration in plasma: 17.9 µg/mL
Rat [11]
  concentration in brain: 2.6 µg/g
Rat [12]
  concentration in plasma: 1.52 µg/mL
Rat [13]
  concentration in brain: 8.04 µg/g
Rat [14]
  concentration in plasma: 72.4 µg/mL
Rat [15]
  concentration in brain: 5.22 µg/g
Rat [16]
  concentration in brain: 0.609 µg/g

## O=C(O)C(Cl)Br (centres undefined) [Bromochloroacetic acid]
Rat [17]
  concentration in plasma: 13.7 µg/mL
Rat [18]; 2 min
  concentration in plasma: 2.41 µg/mL
Rat [18]; 1.5 h
  concentration in plasma: 30.7 µg/mL
Rat [19]; 2 h
  concentration in plasma: 3.19 µg/mL
Rat [19]; 3 h
  concentration in plasma: 0.697 µg/mL

## OCCC(F)(F)C(F)(F)C(F)(F)C(F)(F)C(F)(F)C(F)(F)C(F)(F)C(F)(F)F [Fluorotelomer alcohol 8+2]
Rat [20]; 5 min
  concentration in plasma: 1.26 ng/mL
Rat [20]; 3 h
  concentration in plasma: 430 ng/mL
Rat [21]; 5 min
  concentration in plasma: 1.67 ng/mL
Rat [21]; 3 h
  concentration in plasma: 166 ng/mL
Rat [22]
  concentration in plasma: 163 ng/mL
Rat [23]; 1 h
  concentration in plasma: 1540 ng/mL
Rat [23]; 24 h
  concentration in plasma: 98.7 ng/mL
Rat [24]
  concentration in plasma: 215 ng/mL

## NC=O [Formamide]
Rat [25]; 0.25 h
  concentration in plasma: 39.8 µg/mL
Rat [25]; 24 h
  concentration in plasma: 5.4 µg/mL
Rat [26]; 2 h
  concentration in plasma: 169 µg/mL
Rat [26]; 96 h
  concentration in plasma: 3.2 µg/mL
Rat [27]; 1 h
  concentration in plasma: 186 µg/mL
Rat [27]; 72 h
  concentration in plasma: 6 µg/mL
Rat [28]; 0.5 h
  concentration in plasma: 430 µg/mL
Rat [28]; 48 h
  concentration in plasma: 130 µg/mL
Rat [29]; 8 h
  concentration in plasma: 365 µg/mL
Rat [29]; 12 h
  concentration in plasma: 307 µg/mL
Rat [30]; 2 h
  concentration in plasma: 162 µg/mL
Rat [30]; 96 h
  concentration in plasma: 2.7 µg/mL
Rat [31]; 1 h
  concentration in plasma: 192 µg/mL
Rat [31]; 3 h
  concentration in plasma: 136 µg/mL
Rat [32]; 5 min
  concentration in plasma: 45.1 µg/mL
Rat [32]; 36 h
  concentration in plasma: 3.3 µg/mL

## c1ccncc1 [Pyridine]
Rat [33]
  concentration in plasma: 105 µg/mL
Rat [34]
  concentration in plasma: 20.6 µg/mL
Rat [35]
  concentration in plasma: 3.77 µg/mL
Rat [36]
  concentration in plasma: 34.2 µg/mL

From EPA's CvTdb concentration-time database
